Where a SMILES comes first, the peptide text is derived from it. Bridges are numbered along the chain shown (N, C = ends). [ ]: non-standard residue; d: D form. The star is where a group is joined. Phe(3,5-F2) = N[C@@H](Cc1cc(F)cc(F)c1)C(=O)O; Pip(4S-Me) = C[C@H]1CCN[C@H](C(=O)O)C1; Pro(4R-Me) = C[C@H]1CN[C@H](C(=O)O)C1; Heptenoyl(2E) = CCCC/C=C/C(=O)*; aThr = C[C@H](O)[C@H](N)C(=O)O; Pip = O=C(O)[C@@H]1CCCCN1; X1 = CCC/C=C/C=C/C(=O)*
Tests used:
[1] = molecular target: T1, human mitochondrial CIpP (HsCIpP) (Homo sapiens, UniProt Q16740); test: Screen of ADEP analogs against HsCIpP: relative degradation (RD) index, casein-FITC degradation relative to E. coli CIpAP; format: biochemical; parameters: key: casein-FITC degradation by HsClpP relative to EcClpAP; conditions: for Hs RD25: RD value at 25 μM of the ADEP analog, measure of ability to activate HsCIpP
T1 construct: made in house; host or cells: E. coli SG1146 (BL21(DE3) ΔclpP::cat)
Source text: Structural analogs of acyldepsipeptide (ADEP) (Goodreid et al., 2016) that were previously developed as potential antibiotics against bacterial CIpP were screened and assessed for their ability to activate and dysregulate the protease activity of HsCIpP, by measuring their relative degradation (RD) index. Note that ADEP-28 was also previously reported by Carney et al. (2014). Details of the experimental protocol have been described in Leung et al., 2011. The RD index is defined as follows: […]
Δφ is the change in fluorescence after 6 hr of starting the reaction measured using 485 nm excitation and 535 nm emission, which primarily detects the signal from casein-FITC. E. coli CIpAP was used as a benchmark for maximum CIpP proteolytic activity. The CIpP in the numerator can be from any other organism. RD25 measurements refer to the measurement in the presence of 25 μM compound. All ADEP analogs were first screened at 25 μM, and their RD25 scores were calculated using the above formula and method as described in Leung et al., 2011 (FIG. 1A). Those that achieved RD25≥0.87 were screened a second time at 5 μM, followed by calculation of their RD5 scores. The top analogs with RD5≥0.74 were screened a third time at 1 μM, followed by calculation of their RD1 scores (FIG. 1B).
To identify ADEP analogs that allow HsCIpP to degrade folded proteins independent of HsCIpX+ATP (i.e., that activate or dysregulate HsCIpP), the inventors employed the in vitro screening method that was used for identifying small molecule activators of Escherichia coli CIpP (EcCIpP) (Leung et al., 2011). In this approach, the ability of HsCIpP to degrade FITC-labeled casein (casein-FITC) was measured and compared to the ability of EcCIpAP to degrade casein-FITC. This is quantitatively expressed as relative degradation (RD) index (Leung et al., 2011).

HEK293 T-REx WT cells = test: Cytotoxicity, SRB staining, 72 hours; format: cell-based, human
[2] = test system: HEK293 T-REx CLPP^−/− cells; test: Cytotoxicity, SRB staining, 72 hours; conditions: estimated by visual examination
MDA-MB-468 cells = test: Cytotoxicity test, SRB staining, 72 hours; format: cell-based, human; conditions: MDA-MB-468, 72 hours
MCF-7 cells = test: Cytotoxicity test, SRB staining, 72 hours; format: cell-based, human; conditions: MCF-7, 72 hours
MDA-MB-231 CLPP-KD cells = test: Cytotoxicity test, SRB staining, 72 hours; format: cell-based, human; conditions: MDA-MB-231 CLPP-KD, 72 hours; estimated by visual examination
MDA-MB-231 WT cells = test: Cytotoxicity test, SRB staining, 72 hours; format: cell-based, human; conditions: MDA-MB-231, 72 hours

T1 sequence (Q16740 57-277): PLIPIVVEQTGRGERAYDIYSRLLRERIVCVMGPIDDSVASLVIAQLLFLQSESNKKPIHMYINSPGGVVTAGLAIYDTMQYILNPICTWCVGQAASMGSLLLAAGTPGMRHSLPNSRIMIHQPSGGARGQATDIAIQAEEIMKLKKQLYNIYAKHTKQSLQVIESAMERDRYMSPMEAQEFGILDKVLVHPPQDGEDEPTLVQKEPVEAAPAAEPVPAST

Compound	Hs RD25 [1]	IC50 (HEK293 T-REx WT cells) [nM]	IC50 [2] [nM]	IC50 (MDA-MB-468 cells) [nM]	Hs RD1 ([1]; RD value at 1 μM of the ADEP analog)	IC50 (MCF-7 cells) [nM]	IC50 (MDA-MB-231 CLPP-KD cells) [nM]	IC50 (MDA-MB-231 WT cells) [nM]
CCCC/C=C/C(=O)N[C@@H](Cc1cc(F)cc(F)c1)C(=O)N[C@@H]1C(=O)N2CCC[C@H]2C(=O)N2CC[C@H](C)C[C@H]2C(=O)N[C@@H](C)C(=O)N2CCC[C@H]2C(=O)O[C@H]1C [ADEP-28] ({Heptenoyl(2E)}-[Phe(3,5-F2)][aThr]P[Pip(4S-Me)]AP; ester 2-C)	0.95	–	–	–	–	–	–	–
CCC/C=C/C=C/C(=O)N[C@@H](Cc1cc(F)cc(F)c1)C(=O)N[C@@H]1C(=O)N2CCC[C@H]2C(=O)N2CCCC[C@H]2C(=O)N[C@@H](C)C(=O)N2C[C@H](C)C[C@H]2C(=O)O[C@H]1C [ADEP-14] (X1-[Phe(3,5-F2)][aThr]P[Pip]A[Pro(4R-Me)]; ester 2-C)	1.00	1010 ± 50	> 10000	950 ± 60	0.79	1600 ± 200	> 10000	–
CO[C@@]12[C@H](COC(N)=O)C3=C(C(=O)C(C)=C(N)C3=O)N1C[C@@H]1N[C@@H]12 [Mitomycin-C, reference compound]	–	–	–	1500 ± 400	–	400 ± 200	–	800 ± 200

— US20210171576A1, “METHODS FOR TREATING CANCER WITH ACYLDEPSIPEPTIDE ANALOGS” (priority 2018, published 2021)
